The campaign covered roughly 350,000 compounds. About 9,900 (2.8%) were called active. This list was built around the results that the source calls inconclusive (neither active nor inactive); the mix of calls is not that of the screen. Calls follow the shape of the dose curve; as a rule, active = well fitted activation curve with a large enough effect; inconclusive = small, poorly fitted or top-dose-only effect; inactive = no such curve, though single readings can be large or run the other way. No potency is given beside an inconclusive call; the fits are too rough.
Experiment: A quantitative high throughput screen for small molecules that induce DNA re-replication in MCF 10a normal breast cells. Also: nearly all actives have a fitted effect of over 50% in size. As to activity, positive = re-replication: % of control where 0% means no effect.
Details: MCF 10A DNA re-replication, Hoechst nuclear intensity, 48 h; activity, positive = re-replication: at 46.1 µM (top of the series)
Potency is read from the fitted curve at half-maximal effect; tags tell the direction and shape of the fitted curve.

| SMILES | Potency | activity, positive = re-replication |
| --- | --- | --- |
| CSc1ccc(/C=N/NC(=O)CNc2ccc3ccccc3c2)cc1 | inconclusive [activator, single point] |  |
| CCCCN1C(=N)N([C@@H](C)CN2CCC[C@H]2CN2C(N)=NC[C@H]2C(C)C)C[C@H]1[C@H](C)CC | inconclusive [activator, full curve, poor fit] |  |
| COCC(C)n1c(C)cc(C(=O)COc2ccc(N(C)S(=O)(=O)c3ccc(NC(C)=O)cc3)cc2)c1C (stereo not given) | inconclusive [activator, full curve, poor fit] |  |
| CCOc1cc(S(=O)(=O)NC2CC2)c(OCC)cc1-n1cnnn1 |  | inactive: 15.7% |
| O=[N+]([O-])c1cccc(-c2cc(C(F)(F)F)n3nc(-c4ccccc4)cc3n2)c1 | inconclusive [activator, single point] |  |
| CC1=C/C(=C/N(C)C)C(=O)O1 |  | inactive: -1.65% |
| Clc1ccc2[nH]c3c(N4CCC5(CC4)OCCO5)ncnc3c2c1 | active: 20.6 µM |  |
| CCc1cc(=O)oc2cc(C)cc(OCC(=O)NCCc3c[nH]c4ccccc34)c12 |  | inactive: 3.08% |
| CC(C)[C@H](NC(=O)c1ccc(Br)cc1)C(=O)NC1CCCCC1 |  | inactive: -5.51% |
| CCC1(C)Cc2ccccc2C(=O)N1 (stereo not given) |  | inactive: 0.532% |
| COc1cccc(NC(=O)c2cc3ccccc3o/c2=N\O)c1 |  | inactive: 28.8% |
| Cc1ccc(NC(=O)CSc2nc(N)cc(=O)[nH]2)cc1S(=O)(=O)N1CCCCCC1 | inconclusive [activator, single point] |  |
| Cc1cccnc1N(C(=O)Nc1ccccc1)C1=NCC(C)(C)S1 |  | inactive: 12% |
| O=C(NCCc1nnc2ccc(N3CCCC3)nn12)c1ccccc1 | inconclusive [activator, single point] |  |
| COc1cc2c(C#CCCCO)c(-c3ccsc3)oc(=O)c2cc1OC | inconclusive [activator, single point] |  |
| Cc1ccc(Cn2cc(C(=O)NN)c(=O)c3ccc(F)cc32)cc1 | inconclusive [activator, single point] |  |
| CSc1nnc(C)c(=O)n1COC(=O)c1cc(Cl)ccc1[N+](=O)[O-] |  | inactive: 4.05% |
| CCc1ccccc1Nc1nc(N)nc(COC(=O)CCC(=O)c2ccc(F)cc2)n1 | inconclusive [activator, single point] |  |
| Cc1cccn2c(=O)c3cc(C(=O)NCc4ccco4)c(=N)n(C4CCCCC4)c3nc12 | active: 23.1 µM |  |
| COc1ccc(CCn2c(-c3ccco3)nc3ccccc3c2=O)cc1OC | inconclusive [activator, partial curve] |  |
| OCCCNc1nccc(-c2cc(Nc3cccc(Cl)c3)ncn2)n1 | inconclusive [activator, full curve, poor fit] |  |
| CN1CCN(C(=O)c2ccc(Cl)c(S(=O)(=O)N3CCCCCC3)c2)CC1 |  | inactive: -9.06% |
| Cc1ccc(NC(=O)c2c([N+](=O)[O-])cnn2C)cc1C | inconclusive [activator, single point] |  |
| Cc1ccc(-c2nnc(COC(=O)c3cccs3)o2)cc1 |  | inactive: 5.5% |

| SMILES | Potency | activity, positive = re-replication |
| --- | --- | --- |
| CN(CC(=O)Nc1ccc(Cl)c(C(F)(F)F)c1)C(=O)c1ccc(N2CCOCC2)c([N+](=O)[O-])c1 | inconclusive [activator, single point] |  |
| Cc1ccc(CC(=O)NC2CCN(Cc3ccccc3)CC2)cc1 | inconclusive [activator, partial curve, poor fit] |  |
| COc1ccc(S(=O)(=O)N2CCC(C(=O)NCC3CCCO3)CC2)cc1OC (stereo not given) | inconclusive [activator, partial curve, poor fit] |  |
| Cc1cc(C)n(/N=C/c2c[nH]c3ccccc23)c(=O)c1C#N | inconclusive [activator, single point] |  |
| COc1ccc(-n2c(C)nc3c(cnn3-c3ccc(C)cc3)c2=O)cc1 | inconclusive [activator, single point] |  |
| CCOc1ccccc1CNS(=O)(=O)c1ccc(-c2cnc(C3CC3)o2)cc1 | active: 1.3 µM |  |
| CSc1ccc(C2C(C#N)=C(N)Oc3cc4c(cc32)OCO4)cc1 (stereo not given) | inconclusive [activator, single point] |  |
| O=C(OCc1nc(-c2ccccc2Cl)no1)c1ccco1 |  | inactive: 3.12% |
| FC(F)(F)c1cccc(CN2CCC(c3cc(-c4cccs4)n[nH]3)CC2)c1 | active: 13 µM |  |
| O=C(Sc1ccc(Cl)cc1)c1cccc(Cn2cc(C(F)(F)F)ccc2=O)c1 | inconclusive [activator, single point] |  |
| O=C(c1cccc([N+](=O)[O-])c1)N1CCN(S(=O)(=O)/C=C/c2ccccc2)CC1 | inconclusive [activator, single point] |  |
| O=C(O)c1ccc(NC(=O)C2(c3ccccc3)CCCC2)cc1 | inconclusive [activator, full curve, poor fit] |  |
| NS(=O)(=O)c1ccc(CCNC(=O)CN2CCN(Cc3cccc(C(F)(F)F)c3)CC2)cc1 | inconclusive [activator, single point] |  |
| Cc1ccc(-c2noc(C3CCCN(C(=O)c4ccc(C(C)(C)C)cc4)C3)n2)o1 (stereo not given) | inconclusive [activator, partial curve, poor fit] |  |
| O=C1Nc2ccccc2C(=O)C1(Cl)Cc1ccccc1 (stereo not given) | inconclusive [activator, single point] |  |
| Cc1cc(Cl)ccc1OCc1nnc(-c2ccccc2C)o1 |  | inactive: 15.5% |
| CC(C)N(C1=N/C(=C\c2ccco2)C(=O)N1c1ccccc1)C(C)C | active: 7.31 µM |  |
| O=c1c2ccccc2nc(-c2ccccc2)n1Cc1ccccc1 | inconclusive [activator, single point] |  |
| O=C(CCCn1c(=O)c2ccccc2n(Cc2ccccc2)c1=O)NCc1ccco1 | inconclusive [activator, single point] |  |
| Cc1ccc(N(CC(=O)NC(C)(C)C)C(=O)CCC(=O)Nc2nccs2)c(C)c1 | inconclusive [activator, partial curve, poor fit] |  |
| COc1ccc(CN2CCNC(=O)C2CC(=O)NC2CCCCCCC2)cc1OC (stereo not given) |  | inactive: 13.3% |
| O=C(c1ccc2c(=O)n(Cc3ccc(Cl)cc3)c(=S)[nH]c2c1)N1CCCC1 | inconclusive [activator, partial curve, poor fit] |  |
| CN=C(Nc1cccnc1)c1ccccc1 | inconclusive [activator, single point] |  |
| O=C(NC(=S)Nc1cccc2ncccc12)c1ccco1 | inconclusive [activator, single point] |  |

| SMILES | Potency | activity, positive = re-replication |
| --- | --- | --- |
| COc1ccccc1C(=O)N1CC(=O)Nc2ccc(F)cc2C1c1ccccc1 (stereo not given) | inconclusive [activator, single point] |  |
| CCN(CC)S(=O)(=O)c1ccc(N2CCOCC2)c(NC(=O)C2CC2)c1 |  | inactive: -18.8% |
| Cc1ccccc1CSCC(=O)c1c(N)n(C)c(=O)n(C)c1=O |  | inactive: 25.1% |
| COc1cccc(-c2c(-c3cc(OC)cc(OC)c3)n(C)c3ccc(-c4cnc(OC)nc4)cc23)c1 | inconclusive [activator, full curve, poor fit] |  |
| O=C(N/N=C/c1ccccn1)c1cc(-c2cccc3ccccc23)n[nH]1 | inconclusive [activator, full curve] |  |
| CN(N)c1nc2ccccc2nc1C(F)(F)F |  | inactive: 17.6% |
| CC(C)(C)c1ccc(NC(=S)NCc2cccs2)cc1 | inconclusive [activator, partial curve, poor fit] |  |
| O=C(Nc1ccc(Cl)c(Cl)c1)N1CCSCC1 | inconclusive [activator, partial curve, poor fit] |  |
| CCC1=NN(C(=O)CCc2ccccc2)C(O)(C(F)(F)F)C1 (stereo not given) | inconclusive [activator, partial curve, poor fit] |  |
| COc1ccc(-c2cnc(SCC(=O)Nc3nc(C(C)(C)C)cs3)n2Cc2ccco2)cc1 | inconclusive [activator, single point] |  |
| Cc1cccnc1CN1CCN(Cc2nc(C(c3ccccc3)c3ccccc3)no2)CC1 | inconclusive [activator, single point] |  |
| COc1cccc(C(=O)N(C)Cc2c(C)nn(C3CCS(=O)(=O)C3)c2C)c1 (stereo not given) |  | inactive: 14.5% |
| O=C(CNC(=O)c1ccc(Br)cc1)NCc1cccnc1 |  | inactive: -0.438% |
| COc1ccc(CN(CCN)C2CC(C)N(C)CC2C)cc1 (stereo not given) | inconclusive [activator, partial curve, poor fit] |  |
| CC(C)n1c(-c2ccccc2)nc(=S)c2c1CCCC2 |  | inconclusive: -31.6% [activator] |
| COc1ccccc1OCCCCCNCCO | inconclusive [activator, full curve, poor fit] |  |
| Cc1cc(=O)c(C(=O)Nc2cccc(C(=O)NC3CC3)c2)nn1-c1ccccc1Cl |  | inactive: -2.93% |
| Cc1ccc(CNc2nc(C)cs2)cc1 |  | inactive: 16.5% |
| O=C1CCC(C(=O)N2CCCC(C(=O)c3ccc4c5c(cccc35)CC4)C2)=NN1 (stereo not given) | inconclusive [activator, single point] |  |
| Cc1ccc(NC(=O)CSCC(=O)N(C)CC(=O)Nc2ccccc2C(F)(F)F)cc1 | inconclusive [activator, single point] |  |
| O=C(Nc1nc(-c2cccs2)c(-c2cccs2)s1)C1(c2ccccc2)CC1 | active: 20.6 µM |  |
| COc1ccc(OC)c(NC(=O)CSc2nnnn2-c2ccc3c(c2)OCO3)c1 | inconclusive [activator, partial curve, poor fit] |  |

Source: PubChem BioAssay AID624296 (National Center for Advancing Translational Sciences (NCATS), 2012)
